Test results as given in PubChem BioAssay AID651820 (National Center for Advancing Translational Sciences (NCATS), 2012).
Screen size: about 340,000 compounds; about 12,000 (3.5%) were called active. Inconclusive results, whose numbers are uncertain, are shown with a selection of clear calls. Calls follow the shape of the dose curve; as a rule, active = well fitted inhibition curve with a large enough effect; inconclusive = small, poorly fitted or top-dose-only effect, or another doubt; inactive = no such curve, though single readings can be large or run the other way. No potency is given beside an inconclusive call; the fits are too rough.
% is scaled to controls: 0 for no effect and ±100 for the full control effect; potency is read from the fitted curve at half-maximal effect; tags tell the direction and shape of the fitted curve.

Experiment: qHTS Assay for Inhibitors of Hepatitis C Virus (HCV)
Settings: Huh7.5.1 HCVcc-Cre (HCVcc is cell-culture hepatitis C virus) infection, luciferase reporter, 44 h; activity change, negative = inhibition: at 41.8 µM (top of the series) unless noted
Procedure, shortened: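 Luciferase read-out (15 sec integration) after a 15 min room-temperature substrate step quantifies HCVcc-Cre infection. Cells, 1,000 per well, had compound added 4 h post-plating, then virus at ~0.5 moi, and were cultured 44 h.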
With `C=CCN(Cc1ccc(Cl)s1)C(=O)c1ccc(F)c(S(=O)(=O)N2CCOCC2)c1` the Potency was inconclusive [inhibitor, single point]. In the case of `O=C(CN1CCN(Cc2ccc3c(c2)OCO3)CC1)Nc1ccc2[nH]c(=O)[nH]c2c1`, the Potency is reported as “inactive”. In the case of `N#CC1=C(N)OC2=C(CCC/C2=C/c2ccoc2)C1c1ccoc1` (configuration not stated), the Potency is reported as “inactive”. With `Cc1nnc(SCC(=O)N2CCCCC2)s1` the Potency was inconclusive [inhibitor, single point]. With `COc1ccc(NC(=O)c2ccc(Cl)c(S(=O)(=O)NCC3CCCO3)c2)c(OC)c1` (configuration not stated) the Potency was inconclusive [inhibitor, single point]. In the case of `COc1ccc(-c2noc(CCC(=O)NCC3CCCO3)n2)cc1` (configuration not stated), the Potency is reported as “inactive”. For `Clc1ccc2nc(-c3ccc4c(c3)OCO4)cn2c1`, the Potency was inconclusive [inhibitor, single point]. With `O=C(CSc1ccc(-c2ccco2)nn1)NCc1ccc(Cl)cc1` the Potency was “inactive”. In the case of `Cc1ccc(C)c(S(=O)(=O)N2CCN(c3nc(-c4cccnc4)nc4ccccc34)CC2)c1`, the Potency is reported as active: 11.2 µM. In the case of `CCOC(=O)c1ccc2c(c1)n(CC)c(/C=C/N(C)c1ccccc1)[n+]2CC`, the Potency is reported as inconclusive [inhibitor, single point]. In the case of `COc1ccccc1C(=O)NCC(=O)Nc1ccc2c(c1)CCC2`, the Potency is reported as “inactive”. For `CC1(C)Oc2ccc3ccc(=O)oc3c2/C(=C/NC2CCCCC2)C1=O`, the Potency was active: 10 µM. For `C=CCNc1ncnc2ccc(Br)cc12`, the Potency was inconclusive [inhibitor, partial curve, poor fit]. With `C=C(C)COc1ccc(-c2[nH]ncc2Oc2ccccc2OC)c(O)c1` the Potency was inconclusive [inhibitor, single point]. For `C[C@H](CO)N1C[C@H](C)[C@H](CN(C)Cc2ccccc2)Oc2ccc(NC(=O)Nc3ccc(F)cc3)cc2C1=O`, the Potency was inconclusive [inhibitor, single point]. For `O=C(Nc1ccc(S(=O)(=O)NCCc2ccccc2)cc1)c1ccco1`, the Potency was “inactive”. For `Cc1ccccc1CS(=O)(=O)CCC(=O)NCc1ccccn1`, the Potency was “inactive”. With `CC(=O)NCCn1c(SCc2cc(F)ccc2F)nc2ccccc2c1=O` the Potency was inconclusive [inhibitor, single point]. In the case of `CC1(C)CC(=O)C(C=NCc2ccc3c(c2)OCO3)=C(O)C1`, the Potency is reported as “inactive”. For `CCOc1ccc2[nH]c3c(=O)n(CCc4ccc(OC)cc4)cnc3c2c1`, the Potency was “inactive”. With `O=C(/C=C/c1cccs1)NNC(=O)c1ccccc1` the Potency was “inactive”. In the case of `COC(=O)CN1C(=O)S/C(=C/c2ccc(N3CCCCC3)o2)C1=O`, the Potency is reported as inconclusive [inhibitor, single point]. With `Nc1nc(N)nc(COc2ccccc2)n1` the Potency was “inactive”. In the case of `COc1ccc(/C=C/c2nc3ccccc3n2Cc2ccccc2OC)cc1`, the Potency is reported as inconclusive [inhibitor, single point]. For `Cc1nc(OCc2ccccc2)c2ccccc2n1`, the Potency was inconclusive [inhibitor, single point]. For `Cc1coc2c(C)c3oc(=O)c(CCC(=O)NCCCN4CCOCC4)c(C)c3cc12`, the Potency was inconclusive [inhibitor, partial curve]. In the case of `O=C(c1oc(=O)c2ccccc2c1-c1ccccc1)N1CCN(C2CCCCC2)CC1`, the Potency is reported as “inactive”. For `COC(=O)CCCC1=CC2=CC(=O)C(C)(OC(=O)c3cccs3)C(=O)C2=CN1Cc1ccco1` (configuration not stated), the activity change, negative = inhibition was inactive: -12.1% [at 8.37 µM]. For `Cc1c(Cl)cccc1Nc1nc(N)nc(CN2CCc3ccccc3C2)n1`, the Potency was inconclusive [inhibitor, full curve]. For `COc1ccc(C(=O)Nn2c(SCc3cccc([N+](=O)[O-])c3)nc3ccccc3c2=O)cc1`, the Potency was inconclusive [inhibitor, single point]. With `CCC(=O)Nc1cccc(-n2nnnc2SCC(=O)N(C(C)C)C(C)C)c1` the Potency was inconclusive [inhibitor, single point]. For `CNC(=S)N/N=C/c1cc(C)ccc1C`, the Potency was “inactive”. In the case of `Cc1cc(N2CCC(C)CC2)nc(SCC(=O)c2ccccc2)n1`, the Potency is reported as inconclusive [inhibitor, single point]. With `Cc1cc(C(=O)Nc2ccc(F)c(Cl)c2)on1` the Potency was “inactive”. For `CCn1c(=O)c(C(=O)NCc2ccc3c(c2)OCO3)c(O)c2ccccc21`, the Potency was inconclusive [inhibitor, partial curve, poor fit]. In the case of `Cc1cc2ccccn2c1C(=O)c1ccc(Cl)c([N+](=O)[O-])c1`, the Potency is reported as inconclusive [inhibitor, partial curve]. With `CC(Oc1cc2oc(=O)c3c(c2cc1Cl)CCC3)C(=O)NCc1ccncc1` (configuration not stated) the Potency was “inactive”. With `CCOc1ccc(C(=O)Nc2ccc(Cc3ccncc3)cc2)cc1Br` the Potency was inconclusive [inhibitor, partial curve]. In the case of `Cc1ccccc1-n1c(C)nnc1SCC(=O)NC1CCCc2ccccc21` (configuration not stated), the Potency is reported as “inactive”. In the case of `Cc1nn(-c2ccccc2)c2nc(N)c(C#N)c(-c3ccc(O)c(O)c3)c12`, the Potency is reported as active: 11.2 µM. For `COc1ccc(-c2noc(C(C)NC(=O)c3ccco3)n2)cc1OC` (configuration not stated), the Potency was “inactive”. With `Cc1c(C(=O)N/N=C/C(C)C)[nH]c2c([N+](=O)[O-])cccc12` the Potency was inconclusive [inhibitor, single point]. For `Cc1cc2cc3c(cc2nc1SCC(=O)OC(C)C)OCCO3`, the Potency was inconclusive [inhibitor, partial curve]. For `Cc1cc(Oc2ccc3ccccc3c2)nc(SCC(=O)c2ccccc2)n1`, the Potency was inconclusive [inhibitor, full curve, poor fit]. For `COc1c2occc2c(OC)c2c(=O)cc(C(F)(F)C(F)(F)F)oc12`, the Potency was inconclusive [inhibitor, single point]. In the case of `COc1ccc2oc(C(=O)OCC(=O)N3CCCCC3C)c(C)c2c1` (configuration not stated), the Potency is reported as inconclusive [inhibitor, partial curve]. For `Cc1ccc(C(=O)CSc2nnnn2-c2ccccc2)o1`, the Potency was “inactive”. For `Cc1cc(C)cc(-n2c(SC(C)C(=O)NCc3ccc4c(c3)OCO4)nc3ccccc3c2=O)c1` (configuration not stated), the Potency was inconclusive [inhibitor, full curve]. With `CC1(c2nnc(Cc3ccccc3)o2)CC(c2ccccc2[N+](=O)[O-])=NO1` (configuration not stated) the Potency was “inactive”. For `COc1ccccc1NC(=O)c1sc2nc(Cc3ccccc3)cc(C(F)(F)F)c2c1N`, the Potency was inconclusive [inhibitor, full curve, poor fit]. In the case of `O=C(NCC1(c2ccccc2)CCCC1)C1(c2ccccc2)CCCC1`, the Potency is reported as inconclusive [inhibitor, single point]. For `CCCCC(=O)Nc1cccc(-c2csc(-c3ccccc3)n2)c1`, the Potency was inconclusive [inhibitor, partial curve]. With `COc1ccc(C(CNC(=O)c2cc(F)c(F)c(F)c2F)N2CCOCC2)cc1` (configuration not stated) the Potency was inconclusive [inhibitor, single point]. In the case of `CC(C)Cc1nc(SCC(=O)N2CCCCC2)c2c(=O)n(C)c(=O)n(C)c2n1`, the Potency is reported as active: 25.1 µM. In the case of `CC(C)Cn1c(N)c(C(=O)COC(=O)c2cccn2C)c(=O)n(C)c1=O`, the Potency is reported as inconclusive [inhibitor, partial curve]. For `COc1ccc(C)cc1S(=O)(=O)N1c2ccc(C)cc2C2CN(C)CCC21` (configuration not stated), the Potency was inconclusive [inhibitor, single point]. In the case of `COc1ccc(/C(O)=C2/C(=O)C(=O)N(Cc3ccco3)C2c2cccs2)cc1` (configuration not stated), the Potency is reported as “inactive”. With `CSc1nc(C)c2c(n1)N(c1cccc(C)c1)CC2` the Potency was active: 10 µM. For `Cc1ccc(C)c(NC(=O)COc2cccc3c2CCN(Cc2ccccc2C)C3=O)c1`, the Potency was “inactive”. For `CCOC(=O)c1sc(NC(=O)COC(=O)CNC(=O)C2CCCCC2)c(C(=O)OCC)c1C`, the Potency was inconclusive [inhibitor, full curve, poor fit]. With `Cc1cccc(-n2c(-c3csc(C)c3)n[nH]c2=S)c1` the Potency was inconclusive [inhibitor, single point]. In the case of `COCCCNS(=O)(=O)c1ccc2[nH]c3c(c2c1)CCCCC3`, the Potency is reported as inconclusive [inhibitor, partial curve]. With `CCOc1ccc(NC2=C(Cl)C(=O)N(Cc3ccccc3)C2=O)cc1` the Potency was inconclusive [inhibitor, single point]. With `COC(=O)c1cnn(-c2ccc(F)cc2F)c1/C=N/NC(N)=S` the Potency was active: 10 µM. With `COc1ccc(C(=O)CN2C3=NCCCN3c3ccccc32)cc1OC` the Potency was inconclusive [inhibitor, partial curve]. In the case of `c1ccc(C2c3[nH]c4ccccc4c3CCN2Cc2cccn2-c2ccccn2)nc1` (configuration not stated), the Potency is reported as inconclusive [inhibitor, single point]. For `Cc1ccc2c(c1)c1c(n2CC(O)CNC2CCCCC2)CCCC1` (configuration not stated), the Potency was active: 4.47 µM. For `O=C(Nc1ccccc1Cl)C1CCCN(S(=O)(=O)c2ccc(F)cc2)C1` (configuration not stated), the Potency was inconclusive [inhibitor, single point]. With `COc1ccc([C@@H]2CC=C(C(=O)O)CN2S(=O)(=O)c2ccc(C)cc2)cc1OC` the Potency was “inactive”. With `Cc1cc(C)n2nc3nc(N4CCCCC4)nc(-c4ccco4)c3c2n1` the Potency was inconclusive [inhibitor, single point]. With `CCOC(=O)c1ccc(NC(=O)c2nc(S(=O)(=O)Cc3ccccc3)ncc2Cl)cc1` the Potency was active: 10 µM. For `CC(C(=O)N=c1sc2ccccc2n1C)N1C(=O)C2CC=CCC2C1=O` (configuration not stated), the Potency was inconclusive [inhibitor, single point].
